Data reported in patent US7592316B2, “Peptides as NS3-serine protease inhibitors of hepatitis C virus” (Schering Corporation, priority 2000, dated 2009).

What follows are molecules tested against HCV NS3/NS4A protease (strain 1a) (Hepatitis C virus genotype 1a, UniProt P27958) (assay: biochemical). Conditions: Table 5; HCV NS3/NS4A protease, 30° C., pH 6.5; read-out: Ki* Range.

SMILES | Ki
C=CCCC(NC(=O)[C@@H]1C2C(CN1C(=O)[C@@H](NC(=O)OC(C)(C)C)C1CCCCC1)C2(Cl)Cl)C(=O)C(=O)NCCC(=O)OC(C)(C)C (stereo partly drawn) | 1 to 100 nM
C=CCCC(NC(=O)[C@@H]1C2C(CN1C(=O)[C@@H](NC(=O)NC(C)(C)C)C1CCCCC1)C2(Cl)Cl)C(=O)C(=O)NCCC(=O)OC(C)(C)C (stereo partly drawn) | 1 to 100 nM
C=CCCC(NC(=O)[C@@H]1[C@H]2[C@H](CN1C(=O)[C@@H](NC(=O)OC(C)(C)C)C(C)(C)C)C2(Cl)Cl)C(=O)C(=O)NCC=C (stereo partly drawn) | 101 to 1000 nM
C=CCCC(NC(=O)[C@@H]1C2C(CN1C(=O)[C@@H](NC(=O)NC(C)(C)C)C1CCCCC1)C2(C)C)C(=O)C(=O)NCCS(C)(=O)=O (stereo partly drawn) | 1 to 100 nM
C=CCCC(NC(=O)[C@@H]1C2C(CN1C(=O)[C@@H](NC(=O)NC(C)(C)C)C1CCCCC1)C2(C)C)C(=O)C(=O)NCCC(=O)C(C)C (stereo partly drawn) | 1 to 100 nM
C=CCCC(NC(=O)[C@@H]1C2[C@@H](CN1C(=O)[C@@H](NC(=O)OC(C)(C)C)C(C)(C)C)C2(C)C)C(=O)C(=O)NCCC(=O)OC(C)(C)c1ccccc1 (stereo partly drawn) | 1 to 100 nM
C=CCNC(=O)C(=O)C(CCC)NC(=O)[C@@H]1C2C(CN1C(=O)[C@@H](NC(=O)OC1CCCC1C)C1Cc3ccccc3C1)C2(C)C (stereo partly drawn) | 1 to 100 nM
C=CCNC(=O)C(=O)C(CCC)NC(=O)[C@@H]1C2C(CN1C(=O)[C@@H](NC(=O)N(C)C(C)(C)C)C1Cc3ccccc3C1)C2(C)C (stereo partly drawn) | 101 to 1000 nM
C=CCCC(NC(=O)[C@@H]1[C@@H]2[C@H](CN1C(=O)[C@@H](NC(=O)NC(C)(C)C)C1CCCCC1)C2(C)C)C(=O)C(=O)NCCCS(C)(=O)=O (stereo partly drawn) | 101 to 1000 nM
C=CCCC(NC(=O)[C@@H]1[C@@H]2[C@H](CN1C(=O)[C@@H](NC(=O)NC(C)(C)C)C1CCCCC1)C2(C)C)C(=O)C(=O)NCCS(=O)(=O)Cc1ccccc1 (stereo partly drawn) | 1 to 100 nM
C=CCNC(=O)C(=O)C(CCC)NC(=O)[C@@H]1[C@@H]2[C@H](CN1C(=O)[C@@H](NC(=O)OC1CCC(C)C1)C(C)(C)C)C2(C)C (stereo partly drawn) | 101 to 1000 nM
C=CCNC(=O)C(=O)C(CCC)NC(=O)[C@@H]1[C@@H]2[C@H](CN1C(=O)[C@@H](NC(=O)OC1CC[C@@H](C)C1)C(C)(C)C)C2(C)C (stereo partly drawn) | 101 to 1000 nM
CC(C)(C)OC(=O)N[C@H](C(=O)N1C[C@H]2[C@@H]([C@H]1C(=O)NC(CC(F)(F)F)C(=O)C(=O)NCc1ccccc1)C2(C)C)C1Cc2ccccc2C1 (stereo partly drawn) | 101 to 1000 nM
CNC(=O)C(=O)C(CC1CC1)NC(=O)[C@@H]1[C@@H]2[C@H](CN1C(=O)[C@@H](NC(=O)OCC(C)C)C1Cc3ccccc3C1)C2(C)C (stereo partly drawn) | 1 to 100 nM
CNC(=O)C(=O)C(CC1CC1)NC(=O)[C@@H]1[C@@H]2[C@H](CN1C(=O)[C@@H](NC(=O)O[C@H]1CCC[C@@H]1C)C1Cc3ccccc3C1)C2(C)C (stereo partly drawn) | 1 to 100 nM
CC(C)(C)OC(=O)N[C@H](C(=O)N1C[C@H]2[C@@H]([C@H]1C(=O)NC(CC1CC1)C(=O)C(=O)NCC(=O)NCc1ccccc1)C2(C)C)C(C)(C)C (stereo partly drawn) | 1 to 100 nM
CCCC(NC(=O)[C@@H]1[C@@H]2[C@H](CN1C(=O)[C@@H](NC(=O)OC1CCCC1C)C(C)(C)C)C2(C)C)C(=O)C(=O)NCC(=O)NCc1ccccc1 (stereo partly drawn) | 1 to 100 nM

Same assay, conditions: Table 5; HCV NS3/NS4A protease, spectrophotometric assay, 30° C., pH 6.5; read-out: Ki* Range

SMILES | Ki
CC(C)(C)NC(=O)N[C@H](C(=O)N1C[C@H]2[C@@H]([C@H]1C(=O)NC(CC1CC1)C(=O)C(N)=O)C2(C)C)C1CCCCC1 (stereo partly drawn) | 1 to 100 nM
CC1(C)[C@@H]2[C@@H](C(=O)NC(CC3CC3)C(=O)C(N)=O)N(C(=O)[C@@H](NC(=O)O[C@@H]3CCOC3)C3CCCCC3)C[C@@H]21 (stereo partly drawn) | 101 to 1000 nM
CC1(C)[C@@H]2[C@@H](C(=O)NC(CC3CC3)C(=O)C(N)=O)N(C(=O)[C@@H](CC(=O)OC3CCOC3)C3CCCCC3)C[C@@H]21 (stereo partly drawn) | 101 to 1000 nM
CC(C)OC(=O)N[C@H](C(=O)N1C[C@H]2[C@@H]([C@H]1C(=O)NC(CC1CC1)C(=O)C(N)=O)C2(C)C)C1Cc2ccccc2C1 (stereo partly drawn) | 1 to 100 nM
CCCC(NC(=O)[C@@H]1[C@@H]2[C@H](CN1C(=O)[C@@H](NC(=O)NC1CCCCC1)C(C)(C)C)C2(C)C)C(=O)C(N)=O (stereo partly drawn) | 101 to 1000 nM
C=CCNC(=O)C(=O)C(CCC)NC(=O)[C@@H]1[C@@H]2[C@H](CN1C(=O)[C@@H](NC(=O)O[C@@H](C)C(C)C)C1CCCCC1)C2(C)C (stereo partly drawn) | 101 to 1000 nM
C=CCNC(=O)C(=O)C(CCC)NC(=O)[C@@H]1[C@@H]2[C@H](CN1C(=O)[C@@H](NC(=O)OCC1CC1)C1CCCCC1)C2(C)C (stereo partly drawn) | 101 to 1000 nM
C=CCNC(=O)C(=O)C(CCC)NC(=O)[C@@H]1[C@@H]2[C@H](CN1C(=O)[C@@H](NC(=O)OC1CCCC1)C1CCCCC1)C2(C)C (stereo partly drawn) | 101 to 1000 nM
C=CCNC(=O)C(=O)C(CCC)NC(=O)[C@@H]1[C@@H]2[C@H](CN1C(=O)[C@@H](NC(=O)[C@@H](OC(C)=O)c1ccccc1)C1CCCCC1)C2(C)C (stereo partly drawn) | 101 to 1000 nM
C=CCCC(NC(=O)[C@@H]1[C@H]2[C@@H](CN1C(=O)[C@@H](N)C1CCCCC1)C2(C)C)C(=O)C(=O)NCC=C (stereo partly drawn) | > 1000 nM
C=CCCC(NC(=O)[C@@H]1[C@H]2[C@@H](CN1C(=O)[C@@H](NC(=O)OC(C)(C)C)C1CCCC1)C2(C)C)C(=O)C(=O)NCC=C (stereo partly drawn) | 101 to 1000 nM
C=CCNC(=O)C(=O)C(CC(C)C)NC(=O)[C@@H]1[C@H]2[C@@H](CN1C(=O)[C@@H](NC(=O)OC(C)(C)C)C(C)(C)C)C2(C)C (stereo partly drawn) | > 1000 nM
C=CCCC(NC(=O)[C@@H]1[C@H]2[C@@H](CN1C(=O)C(CC1CCCCC1)NC(=O)OC(C)(C)C)C2(C)C)C(=O)C(=O)NCC=C (stereo partly drawn) | > 1000 nM
C=CCCC(NC(=O)[C@@H]1[C@H]2[C@@H](CN1C(=O)[C@@H](NC(=O)OC(C)(C)C)C(C)CC)C2(C)C)C(=O)C(=O)NCC=C (stereo partly drawn) | > 1000 nM
C=CCNC(=O)C(=O)C(CCC)NC(=O)[C@@H]1[C@H]2[C@@H](CN1C(=O)[C@@H](NC(=O)OC(C)(C)C)C1CCCC1)C2(C)C (stereo partly drawn) | 101 to 1000 nM
C=CCCC(NC(=O)[C@@H]1[C@H]2[C@@H](CN1C(=O)[C@@H](NC(=O)C(O)C(C)C)C1CCCCC1)C2(C)C)C(=O)C(=O)NCC=C (stereo partly drawn) | > 1000 nM
C=CCCC(NC(=O)[C@@H]1[C@H]2[C@@H](CN1C(=O)[C@@H](NC(=O)OC(C)(C)C)C1CCCCC1)C2(C)C)C(=O)C(=O)NCC=C (stereo partly drawn) | > 1000 nM
C=CCNC(=O)C(=O)C(CCC)NC(=O)[C@@H]1C2C(CN1C(=O)C(CCC(=O)OC(C)(C)C)NC(=O)OCC(C)C)C2(C)C (stereo partly drawn) | > 1000 nM
C=CCNC(=O)C(=O)C(CCC)NC(=O)[C@@H]1[C@H]2[C@@H](CN1C(=O)[C@@H](NC(=O)OCC(C)C)C1Cc3ccccc3C1)C2(C)C (stereo partly drawn) | 101 to 1000 nM
C=CCNC(=O)C(=O)C(CCC)NC(=O)[C@@H]1[C@H]2[C@@H](CN1C(=O)[C@@H](NC(=O)OC(C)C)C1Cc3ccccc3C1)C2(C)C (stereo partly drawn) | 101 to 1000 nM
C=CCNC(=O)C(=O)C(CCC)NC(=O)[C@@H]1[C@H]2[C@@H](CN1C(=O)[C@@H](NC(=O)OCC(C)(C)C)C1Cc3ccccc3C1)C2(C)C (stereo partly drawn) | 101 to 1000 nM
C=CCNC(=O)C(=O)C(CCC)NC(=O)[C@@H]1[C@H]2[C@@H](CN1C(=O)[C@@H](NC(=O)OCc1ccccc1)C1Cc3ccccc3C1)C2(C)C (stereo partly drawn) | > 1000 nM

SMILES | Ki
C=CCNC(=O)C(=O)C(CCC)NC(=O)C1C2C(CN1C(=O)C(NC(=O)OCC(C)C)C1CCCC(C(=O)NCc3ccccc3)C1)C2(C)C (stereo not drawn) | > 1000 nM
C=CCNC(=O)C(=O)C(CCC)NC(=O)[C@@H]1[C@H]2[C@@H](CN1C(=O)[C@@H](NC(=O)CC1CCCC1)C1Cc3ccccc3C1)C2(C)C (stereo partly drawn) | > 1000 nM
C=CCNC(=O)C(=O)C(CCC)NC(=O)[C@@H]1[C@H]2[C@@H](CN1C(=O)[C@@H](NC(=O)C(C)(C)C)C1Cc3ccccc3C1)C2(C)C (stereo partly drawn) | > 1000 nM
C=CCNC(=O)C(=O)C(CCC)NC(=O)[C@@H]1[C@H]2[C@@H](CN1C(=O)[C@@H](NC(=O)CCc1ccccc1)C1Cc3ccccc3C1)C2(C)C (stereo partly drawn) | > 1000 nM
C=CCNC(=O)C(=O)C(CC(C)(C)C)NC(=O)[C@@H]1[C@@H]2[C@H](CN1C(=O)[C@@H](NC(=O)OC(C)(C)C)C(C)(C)C)C2(C)C (stereo partly drawn) | > 1000 nM
C=CCCC(NC(=O)[C@@H]1[C@H]2[C@@H](CN1C(=O)[C@@H](NC(=O)CC(C)(C)C)C1CCCCC1)C2(C)C)C(=O)C(=O)NCC=C (stereo partly drawn) | > 1000 nM
C=CCCC(NC(=O)[C@@H]1[C@H]2[C@@H](CN1C(=O)[C@@H](NC(=O)NC(C)(C)C)C1CCCCC1)C2(C)C)C(=O)C(=O)NCC=C (stereo partly drawn) | 101 to 1000 nM
C=CCNC(=O)C(=O)C(CCC)NC(=O)C1C2C(CN1C(=O)C(CCC(=O)O)NC(=O)OCC(C)C)C2(C)C (stereo not drawn) | > 1000 nM
C=CCNC(=O)C(=O)C(CCC)NC(=O)[C@@H]1[C@H]2[C@@H](CN1C(=O)[C@@H](NC(=O)CC(C)(C)C)C1Cc3ccccc3C1)C2(C)C (stereo partly drawn) | > 1000 nM
C=CCNC(=O)C(=O)C(CCC)NC(=O)[C@@H]1[C@H]2[C@@H](CN1C(=O)[C@@H](NC(=O)Cc1ccccc1)C1Cc3ccccc3C1)C2(C)C (stereo partly drawn) | > 1000 nM
C=CCNC(=O)C(=O)C(CC=C)NC(=O)[C@@H]1[C@H]2[C@@H](CN1C(=O)[C@@H](NC(=O)OC(C)(C)C)C1Cc3ccccc3C1)C2(C)C (stereo partly drawn) | 101 to 1000 nM
C=CCC(NC(=O)[C@@H]1[C@H]2[C@@H](CN1C(=O)[C@@H](CC(=O)OC(C)(C)C)C1Cc3ccccc3C1)C2(C)C)C(=O)C(=O)NCC (stereo partly drawn) | > 1000 nM
CCCC(NC(=O)[C@@H]1[C@@H]2[C@H](CN1C(=O)[C@@H](NC(=O)OC(C)(C)C)C(C)(C)C)C2(C)C)C(=O)C(=O)NCC(F)(F)F (stereo partly drawn) | > 1000 nM
CC(C)(C)OC(=O)N[C@H](C(=O)N1C[C@H]2[C@@H]([C@H]1C(=O)NC(CC1CC1)C(=O)C(=O)NCC(F)(F)F)C2(C)C)C1CCCCC1 (stereo partly drawn) | > 1000 nM
C=CCCC(NC(=O)[C@@H]1[C@H]2C[C@H]2CN1C(=O)[C@@H](NC(=O)OC(C)(C)C)C1CCCCC1)C(=O)C(=O)NCC=C (stereo partly drawn) | > 1000 nM
C=CCCC(NC(=O)[C@@H]1[C@H]2C[C@H]2CN1C(=O)[C@@H](NC(=O)OC(C)(C)C)C1CCCCC1)C(=O)C(=O)NCCC(=O)OC(C)(C)C (stereo partly drawn) | > 1000 nM
C=CCCC(NC(=O)[C@@H]1[C@@H]2[C@H](CN1C(=O)C(NC(=O)OC(C)(C)C)C1C=CCCCC1)C2(C)C)C(=O)C(=O)NCC=C (stereo partly drawn) | 101 to 1000 nM
C=CCCC(NC(=O)[C@@H]1[C@@H]2[C@H](CN1C(=O)C(NC(=O)OC(C)(C)C)C1CCCCCC1)C2(C)C)C(=O)C(=O)NCC=C (stereo partly drawn) | 101 to 1000 nM
C=CCCC(NC(=O)[C@@H]1[C@@H]2[C@H](CN1C(=O)[C@@H](NC(=O)OC(C)(C)C)C1CCCCC1)C2(C)C)C(=O)C(=O)NCC(=O)OC(C)(C)C (stereo partly drawn) | 101 to 1000 nM
C=CCNC(=O)C(=O)C(CCC)NC(=O)[C@@H]1CC(c2ccccc2)CN1S(=O)(=O)c1ccc(C)cc1 (stereo partly drawn) | > 1000 nM
C=CCNC(=O)C(=O)C(CC(C)C)NC(=O)[C@@H]1[C@@H]2[C@H](CN1C(=O)[C@@H](NC(=O)OC(C)(C)C)C1CCCCC1)C2(C)C (stereo partly drawn) | > 1000 nM
